Test results taken from PMC3297496.
No constants are given. Whether binding was seen depends on the method and setting. Some entries that bind do so weakly or less than the wild type. Where a sequence is shown, tags or fusion partners need not be part of it.

Columns and labels:
Assay in all cases: two-hybrid; split-ubiquitin pair-wise assay in yeast: DOP-2XL baits (full length in pBT3-STE, truncations in pBT3-SUC) with NubG preys (pPR3-N, pPR3-STE, pDL2-Alg5); growth on SD/-Ade-His-Leu-Trp with 1 mM 3-AT and X-gal filter assay
[1] = target: T1, C. elegans D2-like dopamine receptor DOP-2XL, full-length split-ubiquitin bait (dop-2c in pBT3-STE) (C. elegans) (UniProt E7EM37)
T1 sequence: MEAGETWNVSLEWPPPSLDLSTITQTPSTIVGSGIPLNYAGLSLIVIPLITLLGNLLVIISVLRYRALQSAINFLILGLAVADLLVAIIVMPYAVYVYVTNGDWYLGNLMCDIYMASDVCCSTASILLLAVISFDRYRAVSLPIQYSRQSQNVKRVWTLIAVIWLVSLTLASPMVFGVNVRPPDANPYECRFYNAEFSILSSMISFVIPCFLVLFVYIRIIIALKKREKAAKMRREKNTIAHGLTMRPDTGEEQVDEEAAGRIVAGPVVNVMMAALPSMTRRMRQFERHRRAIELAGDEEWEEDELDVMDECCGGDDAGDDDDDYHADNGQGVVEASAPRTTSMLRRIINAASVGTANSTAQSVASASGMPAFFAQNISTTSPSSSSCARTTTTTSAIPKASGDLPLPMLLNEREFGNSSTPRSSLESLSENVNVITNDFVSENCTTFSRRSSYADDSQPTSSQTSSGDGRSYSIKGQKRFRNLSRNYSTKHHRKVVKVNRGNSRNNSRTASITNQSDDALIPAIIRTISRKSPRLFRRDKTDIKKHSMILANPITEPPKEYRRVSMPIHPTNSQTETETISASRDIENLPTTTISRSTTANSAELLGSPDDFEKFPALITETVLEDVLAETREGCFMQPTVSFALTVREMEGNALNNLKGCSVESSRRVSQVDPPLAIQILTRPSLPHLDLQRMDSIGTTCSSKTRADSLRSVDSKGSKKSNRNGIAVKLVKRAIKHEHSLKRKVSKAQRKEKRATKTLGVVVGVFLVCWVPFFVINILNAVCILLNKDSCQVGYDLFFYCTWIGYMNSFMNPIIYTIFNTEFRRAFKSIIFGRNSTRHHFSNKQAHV

[2] = target: T2, DOP-2IL-CII (DOP-2XL amino acids 124-849), split-ubiquitin bait in pBT3-SUC (C. elegans) (UniProt E7EM37)
T2 sequence: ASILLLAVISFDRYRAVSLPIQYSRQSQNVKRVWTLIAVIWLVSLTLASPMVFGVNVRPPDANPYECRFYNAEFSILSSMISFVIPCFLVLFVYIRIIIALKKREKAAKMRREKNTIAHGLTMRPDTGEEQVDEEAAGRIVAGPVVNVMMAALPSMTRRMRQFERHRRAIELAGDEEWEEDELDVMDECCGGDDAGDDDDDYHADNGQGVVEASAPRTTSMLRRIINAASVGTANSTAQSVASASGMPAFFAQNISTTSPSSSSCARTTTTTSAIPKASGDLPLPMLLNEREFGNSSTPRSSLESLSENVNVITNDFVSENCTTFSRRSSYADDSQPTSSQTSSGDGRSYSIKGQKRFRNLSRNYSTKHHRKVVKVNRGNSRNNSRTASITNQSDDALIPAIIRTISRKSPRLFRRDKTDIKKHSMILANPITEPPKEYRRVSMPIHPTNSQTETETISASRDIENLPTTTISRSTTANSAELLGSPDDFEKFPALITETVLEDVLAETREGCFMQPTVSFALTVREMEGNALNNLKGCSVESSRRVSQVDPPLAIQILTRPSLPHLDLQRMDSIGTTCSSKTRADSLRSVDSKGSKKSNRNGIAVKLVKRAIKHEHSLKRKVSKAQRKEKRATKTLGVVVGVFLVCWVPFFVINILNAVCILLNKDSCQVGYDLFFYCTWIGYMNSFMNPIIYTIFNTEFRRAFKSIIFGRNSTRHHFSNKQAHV

[3] = target: T3, DOP-2IL-CIII (DOP-2XL amino acids 224-849), split-ubiquitin bait in pBT3-SUC (C. elegans) (UniProt E7EM37)
T3 sequence: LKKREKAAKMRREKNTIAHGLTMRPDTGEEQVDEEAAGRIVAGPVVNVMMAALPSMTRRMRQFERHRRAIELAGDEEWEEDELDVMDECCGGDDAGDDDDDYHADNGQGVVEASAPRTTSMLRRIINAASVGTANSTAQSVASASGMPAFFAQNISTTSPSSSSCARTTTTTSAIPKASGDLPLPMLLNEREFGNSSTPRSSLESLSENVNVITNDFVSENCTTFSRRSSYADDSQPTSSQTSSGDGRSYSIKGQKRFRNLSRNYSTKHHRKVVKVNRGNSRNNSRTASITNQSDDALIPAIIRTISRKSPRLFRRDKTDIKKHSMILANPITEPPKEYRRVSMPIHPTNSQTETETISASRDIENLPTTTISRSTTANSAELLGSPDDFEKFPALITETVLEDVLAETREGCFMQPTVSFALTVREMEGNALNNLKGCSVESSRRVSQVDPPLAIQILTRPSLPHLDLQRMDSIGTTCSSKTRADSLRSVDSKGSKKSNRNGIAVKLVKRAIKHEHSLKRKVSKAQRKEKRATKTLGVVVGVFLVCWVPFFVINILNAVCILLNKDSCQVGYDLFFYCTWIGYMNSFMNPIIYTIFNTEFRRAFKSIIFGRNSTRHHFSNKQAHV

[4] = target: T4, DOP-2IL-CIV (DOP-2XL amino acids 821-849), split-ubiquitin bait in pBT3-SUC (C. elegans) (UniProt E7EM37)
T4 sequence: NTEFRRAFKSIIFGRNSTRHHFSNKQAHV

B1: GPA-14, split-ubiquitin prey in pPR3-N (NubG fusion) (protein, UniProt Q9BIG2 1-408)
chain: MAFSCFDKFSYTYCYQCMHGPDGCMVPSRNGEGTELYAHSEELEAKLRELARRGHMEIEKELALEKKTYGSHIKILILGGPLSGKSTIFKQMQIIHVDGFKTDQELIQYRGLIDNNIRDIYLQLIAGSRVVGIPLDPIEHITYEIDEIYAPMSDAFSVRTISELLEPLTEFWNSKQIQEIYKRRCEFELLDSTKYYLENLTRIADPTYLPNQEDIVHSRKATMSINSIVFEYTGVSLLMIDVGGQRSERKKWLHLFDDAKVVLFVIDLTGYAKRSEESRMELSRFPKFFRDVGSNAYDMKVALKIFNEVAAASALANAVFLLFFNKVDLFKEILSQVNLQPCFSKFDGENTYEETSKYICEKFIRAASSKKSVFPHFTTATNTENVKLVFRACMESVFKANAKATGLS
B1 was tested, and the binding [1] was “binds”, the binding [2] was “binds” and the binding [3] was “binds weakly”. The binding [4] was “no binding”.
